Where “and” joins values, the source holds several entries; their conditions need not be identical. Identical values can stand only once. Out of some 410,000 compounds screened, about 6,400 (1.6%) were called active. The shares of active, inactive and inconclusive entries below differ from those in the screen. Calls come from the whole dose curve; as a rule, active = well fitted inhibition curve with a large enough effect; inconclusive = small, poorly fitted or top-dose-only effect; inactive = no such curve, though single readings can be large or run the other way. Where the call is inconclusive, the potency comes from a doubtful curve fit.
Molecular target: Glucagon-like peptide 1 receptor (Homo sapiens) (UniProt P43220)
Sequence of UniProt P43220 (P43220 whole entry, looked up): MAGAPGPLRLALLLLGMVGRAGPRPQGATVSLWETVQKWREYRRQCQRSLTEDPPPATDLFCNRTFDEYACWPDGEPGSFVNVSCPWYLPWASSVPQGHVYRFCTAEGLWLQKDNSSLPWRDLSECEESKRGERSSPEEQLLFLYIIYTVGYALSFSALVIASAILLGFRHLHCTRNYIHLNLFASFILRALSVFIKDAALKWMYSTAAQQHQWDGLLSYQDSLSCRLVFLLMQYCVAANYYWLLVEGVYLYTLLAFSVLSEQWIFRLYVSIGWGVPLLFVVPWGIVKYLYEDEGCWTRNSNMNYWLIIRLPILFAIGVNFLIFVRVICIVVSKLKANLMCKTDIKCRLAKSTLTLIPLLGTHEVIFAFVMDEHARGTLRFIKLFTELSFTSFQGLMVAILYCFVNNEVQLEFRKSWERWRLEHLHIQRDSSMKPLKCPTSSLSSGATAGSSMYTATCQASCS
Assay: qHTS of GLP-1 Receptor Inverse Agonists (Inhibition Mode); note: nearly all actives have a fitted effect of over 55% in size
Conditions: HEK293 GLP-1R CRE-luciferase, luminescence, 24 h, GLP-1R form is constitutively active; activity change, negative = inhibition: at 38.3 µM (top of the series) unless noted
How it was run: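 Inverse agonism was detected as reduced cAMP-driven luciferase luminescence after 24 h compound treatment. The cells were HEK293 clones expressing constitutively active human GLP-1R with the reporter. Reporter-only and GPR119 cell lines served as counterscreen controls.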
% is set by controls: 0 for no effect and ±100 for the full control effect; potency is the fitted concentration of half-maximal effect; tags give direction and shape of the fitted curve.

Potency, inconclusive:
Cc1nn(C)c2c1c(-c1ccccc1)cc(=O)n2C(C)C(=O)NCCc1ccc(Cl)cc1 (centres undefined) 10 µM [inhibitor, partial curve, poor fit]
Cc1cccc(OCC(=O)Nc2ccccc2N2CCCCC2)c1C 10 µM [inhibitor, partial curve, poor fit]
CC(C)(C)NCCC(O)c1cc(C(F)(F)F)nc2c(C(F)(F)F)cccc12 (centres undefined) 3.55 µM [inhibitor, partial curve, poor fit]
CCN(CC)CCN1CCn2c3c(c4cc(C)ccc42)CCCC31 (centres undefined) 10 µM [inhibitor, partial curve, poor fit]
Cc1cccc(C(=O)Nc2ccc(C(=O)/C=C/c3cccs3)cc2)c1 3.16 µM [inhibitor, partial curve]
O=C(CCC1CCCN(C(=O)CC2=CCCCC2)C1)N1CCN(c2ccccn2)CC1 (centres undefined) 10 µM [inhibitor, single point]
CCOC(=O)c1ccc(Nc2nc(N)c3cc(OC)c(OC)cc3n2)cc1 22.4 µM [inhibitor, single point]
Clc1ccc2c(c1)c1ccccc1n2CN1CCOCC1 11.2 µM [inhibitor, single point]
O=C(Cn1cccc1)N1CCN(C(c2ccccc2)c2ccccc2)CC1 28.2 µM [inhibitor, single point]
Cc1ccsc1/C=N/NC(=O)c1nnn(-c2nonc2N)c1-c1ccc2c(c1)OCO2 25.1 µM [inhibitor, single point]
CCOc1ccc(OCC)c(NC(=O)c2nnn(CC(=O)Nc3cc(C)cc(C)c3)c2N)c1 3.55 µM [inhibitor, partial curve, poor fit]
CCOCCCNC(=O)c1ccc2c(c1)ncn2-c1ccc(C)cc1C 10 µM [inhibitor, partial curve, poor fit]
COc1ccc(Nc2cc(C(=O)NCCCN(C)c3ccccc3)c3ccccc3n2)c(OC)c1 28.2 µM [inhibitor, single point]
COc1ccc(CC(=O)Nc2ccc(-c3nc4ccccc4s3)cc2Cl)cc1OC 2.51 µM [inhibitor, full curve]
CCCOCc1cc(CN2CCN(c3cccc(Cl)c3)CC2)c(O)c2ncccc12 3.55 µM [inhibitor, full curve]
Cc1nnsc1C(=O)NNc1c(Cl)cccc1Cl 3.55 µM [inhibitor, full curve, poor fit]
COc1cc(/C=C2/C(=O)NN(c3ccc(F)cc3)C2=O)cc([N+](=O)[O-])c1O 2 µM [inhibitor, full curve, poor fit]
Cc1ccc(S(=O)(=O)Nc2ccc3c(c2)C(=O)N([C@H](C)CO)C[C@@H](C)[C@@H](CN(C)C(=O)Nc2cccc4ccccc24)O3)cc1 22.4 µM [inhibitor, single point]
Cc1cccc(N2CCN(C(=O)N3CCOCC3)CC2)c1C 8.91 µM [inhibitor, partial curve, poor fit]
C=CCC(CC=C)(NC(=O)c1ccccc1)c1ccccc1 10 µM [inhibitor, partial curve, poor fit]
c1ccc(C2(CN3CCNC[C@H]3Cc3cccc4ccccc34)CC2)cc1 28.2 µM [inhibitor, single point]
CCc1ccc(N=CC23c4ccccc4C(c4ccccc42)C2C(=O)N(c4ccc(OC)cc4)C(=O)C23)cc1 (centres undefined) 11.2 µM [inhibitor, single point]
CC(C)OC(=O)CSc1nnc(-c2ccc(C(C)(C)C)cc2)n1N 5.01 µM [inhibitor, partial curve]
COc1cc(OC)c(CN2CCc3c([nH]c4ccccc34)C2)cc1Br 11.2 µM [inhibitor, partial curve, poor fit]
Cc1ccc(C(=O)C2CCN(CC(=O)N3CCN(c4ccc(F)cc4)CC3)CC2)cc1 31.6 µM [inhibitor, partial curve, poor fit]
CCc1ccccc1NS(=O)(=O)c1ccc(-c2coc(C)n2)cc1 25.1 µM [inhibitor, partial curve, poor fit]
CCC1CCCCN1S(=O)(=O)c1ccc(NC(=O)c2nc(SC)ncc2Cl)cc1 (centres undefined) 8.91 µM [inhibitor, partial curve, poor fit]
COc1ccc([N+](=O)[O-])cc1NCc1ccco1 28.2 µM [inhibitor, single point]
Nc1ccccc1C#CC(=O)c1ccccc1 28.2 µM [inhibitor, single point]
O=C(CSc1nnnn1C1CC2CCC1C2)Nc1ccnc2ccccc12 (centres undefined) 10 µM [inhibitor, partial curve, poor fit]
CCc1nc(C)c(C(=O)N2CCCC(C(=O)Nc3cccc(-c4cccc(C)c4)c3)C2)o1 (centres undefined) 6.31 µM [inhibitor, full curve, poor fit]
CCOC(=O)N1CCN(C(=O)c2ccc3nc(N4CCC(C)CC4)sc3c2)CC1 11.2 µM [inhibitor, single point]
Cc1cc(N/N=C/c2ccc(O)cc2O)nc(-n2nc(C)cc2C)n1 0.501 µM [inhibitor, full curve, poor fit]
O=C(Cc1ccc(-n2c(=O)c3ccccc3n(CC(=O)Nc3ccc(F)cc3F)c2=O)cc1)NCc1ccco1 20 µM [inhibitor, single point]
COc1cccc(C2CC(c3cccs3)=NN2C(=O)CSc2nc3c(cnn3-c3ccc(F)cc3)c(=O)[nH]2)c1OC (centres undefined) 1.26 µM [inhibitor, partial curve, poor fit]
Cc1ccc(C(=O)N2c3ncnn3C3(CCCCC3)[C@@H]3CCCC[C@@H]32)cc1 10 µM [inhibitor, partial curve, poor fit]
Cc1noc(C)c1CSCC(=O)Nc1ccc(S(=O)(=O)C(F)F)cc1 28.2 µM [inhibitor, single point]
COc1ccc(C2NC(=S)N(c3ccccc3)C(C)=C2C(=O)Nc2ccccc2)cc1 (centres undefined) 7.94 µM [inhibitor, partial curve, poor fit]
CCN(CC(=O)Nc1ccc(OC)cc1)C(=O)c1oc2c(Cl)cccc2c1C 8.91 µM [inhibitor, partial curve, poor fit]
Cc1ccc(CS(=O)Cc2ccc(C(=O)NCC(C)c3ccccc3)o2)cc1 (centres undefined) 8.91 µM [inhibitor, partial curve, poor fit]
O=C(NCCc1ccc(Cl)cc1)c1ccc2nccnc2c1 28.2 µM [inhibitor, single point]
CCOc1ccc(S(=O)(=O)N2CCC(C(=O)N3CCN(Cc4ccccc4)CC3)CC2)cc1 11.2 µM [inhibitor, partial curve, poor fit]
CCN1C(=O)C(CC(=O)Nc2ccc(OC)cc2)N(CCc2ccccc2)C1=S (centres undefined) 7.08 µM [inhibitor, partial curve, poor fit]
Cc1ccc[n+](C(C)C(=O)c2ccc(-c3ccccc3)cc2)c1 (centres undefined) 8.91 µM [inhibitor, partial curve, poor fit]
CC(C)CC1Nc2ncnc(N3CCN(c4ccccn4)CC3)c2N(Cc2ccc(Cl)cc2)C1=O (centres undefined) 10 µM [inhibitor, partial curve, poor fit] and 12.6 µM [inhibitor, partial curve, poor fit]
Cc1ccccc1CSCCC(=O)NCCC1=CCCCC1 28.2 µM [inhibitor, single point]
COc1cc(C(=O)NCC2CCCO2)ccc1OCc1ccc(Cl)cc1Cl (centres undefined) 17.8 µM [inhibitor, partial curve, poor fit]
CCCCn1c(CNC(=O)c2cccs2)nc2ccccc21 28.2 µM [inhibitor, single point]
O=C(Nc1ccccc1)C1=C(O)CC(c2ccoc2)CC1=Nc1ccccc1 (centres undefined) 1 µM [inhibitor, partial curve, poor fit]
Cc1cccc(Nc2c3c(nc4ccccc24)CCC3)c1 12.6 µM [inhibitor, partial curve, poor fit]

Activity change, negative = inhibition, inactive:
CCN(CC)CCNC(=O)c1ccc2c(c1)NC(=O)C(CS(=O)(=O)Cc1ccc(F)cc1Cl)N2 (centres undefined) 9.35%
CCOc1ccc(N2CC(C(=O)Nc3ccc(S(=O)(=O)N4CCCC4)cc3)CC2=O)cc1 (centres undefined) -14.2%
CCCCn1c(=O)nc2n(-c3ccccc3)c3ccccc3cc-2c1=O -0.548%
FC(F)(F)c1cc(Oc2ccccc2)nc(-c2ccccn2)n1 -3.56%
Cn1c2ccccc2c2cnn(CC(=O)O)c(=O)c21 8.11%
N#CC1(C#N)C(c2ccccc2)OC23CCCCC2C1(C#N)C(=N)O3 (centres undefined) 12.3%
COc1cccc(C(=O)N2CC(=O)Nc3ccc(C)cc3C2c2ccc(F)cc2)c1OC (centres undefined) -2.57%
COc1ccc(NC(=O)C2CC(=O)N(Cc3ccc(C)cc3)C2)cc1S(=O)(=O)N1CCCCC1 (centres undefined) 16.5%
Cc1cc(C)n(CCNC(=O)c2cc(COc3ccc4ncccc4c3)on2)n1 -9.73%

— PubChem BioAssay AID624417 (National Center for Advancing Translational Sciences (NCATS), 2012)
